# Out of some 350,000 compounds screened, about 31,000 (8.9%) were called active. Inconclusive means that the source gave no clear call. Such entries were picked first, then a sample of the others. Calls follow the shape of the dose curve; as a rule, active = well fitted inhibition curve with a large enough effect; inconclusive = small, poorly fitted or top-dose-only effect; inactive = no such curve, though single readings can be large or run the other way. Potencies beside an inconclusive call are fits to weak or partial responses and may not hold up. Where a SMILES comes first, the peptide text is derived from it. The star is where a group is joined. Cbz = O=C(OCc1ccccc1)*
# Target: Histone-lysine N-methyltransferase EHMT2 (Homo sapiens) (UniProt Q96KQ7)
# UniProt Q96KQ7, sequence (Q96KQ7 whole entry, looked up): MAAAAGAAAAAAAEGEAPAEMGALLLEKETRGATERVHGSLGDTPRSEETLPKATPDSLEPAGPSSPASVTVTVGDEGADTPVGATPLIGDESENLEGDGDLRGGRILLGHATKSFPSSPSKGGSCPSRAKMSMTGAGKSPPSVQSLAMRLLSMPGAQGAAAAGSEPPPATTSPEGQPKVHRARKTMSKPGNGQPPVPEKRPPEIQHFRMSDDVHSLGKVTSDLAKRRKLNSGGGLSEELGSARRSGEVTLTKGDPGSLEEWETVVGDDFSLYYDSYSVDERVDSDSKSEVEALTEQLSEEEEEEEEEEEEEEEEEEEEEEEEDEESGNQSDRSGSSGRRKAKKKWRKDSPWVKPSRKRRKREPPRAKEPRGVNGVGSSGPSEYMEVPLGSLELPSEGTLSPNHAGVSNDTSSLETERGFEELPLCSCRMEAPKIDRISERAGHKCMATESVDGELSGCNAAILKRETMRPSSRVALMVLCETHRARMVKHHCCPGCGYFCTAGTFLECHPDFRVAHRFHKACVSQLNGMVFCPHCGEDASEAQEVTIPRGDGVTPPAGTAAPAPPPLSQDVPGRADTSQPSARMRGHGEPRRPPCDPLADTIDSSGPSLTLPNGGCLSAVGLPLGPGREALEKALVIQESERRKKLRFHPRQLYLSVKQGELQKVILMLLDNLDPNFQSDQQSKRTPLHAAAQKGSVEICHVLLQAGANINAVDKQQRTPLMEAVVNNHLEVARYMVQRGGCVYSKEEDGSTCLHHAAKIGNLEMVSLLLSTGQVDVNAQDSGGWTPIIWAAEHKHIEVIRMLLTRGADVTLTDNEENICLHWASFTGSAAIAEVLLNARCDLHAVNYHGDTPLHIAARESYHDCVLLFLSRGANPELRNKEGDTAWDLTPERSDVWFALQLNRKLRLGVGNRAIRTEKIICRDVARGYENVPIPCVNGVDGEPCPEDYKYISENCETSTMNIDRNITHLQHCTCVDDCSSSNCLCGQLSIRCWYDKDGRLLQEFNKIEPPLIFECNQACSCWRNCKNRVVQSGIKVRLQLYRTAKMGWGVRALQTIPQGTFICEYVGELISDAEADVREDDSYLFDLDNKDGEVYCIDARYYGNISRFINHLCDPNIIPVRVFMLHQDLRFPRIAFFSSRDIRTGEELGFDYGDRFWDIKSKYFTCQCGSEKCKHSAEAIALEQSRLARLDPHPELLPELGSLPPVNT
# Assay: qHTS Assay for Inhibitors of Histone Lysine Methyltransferase G9a; also: nearly all actives have a fitted effect of over 75% in size
# Conditions: G9a H3K9 monomethylation, AlphaScreen, 2 h; activity, negative = inhibition: at 59 µM (top of the series) unless noted
# Summary of the method: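 Methyltransferase reactions run at room temperature for 2 h (20 nM enzyme, 500 nM biotin-H3K9 peptide, 20 uM SAM) after a 15 min compound preincubation; product detected by AlphaScreen beads and anti-H3K9me1 antibody.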
# % is scaled to controls: 0 for no effect and ±100 for the full control effect; potency is read from the fitted curve at half-maximal effect; tags tell the direction and shape of the fitted curve.
Structure (SMILES),Potency,"activity, negative = inhibition"
COc1ccc(NC(=O)Nc2ccc(Cc3ccncc3)cc2)c(OC)c1,"inconclusive: 17.8 µM [inhibitor, single point]",–
Nc1c(C(=O)N2CCOCC2)sc2nc3c(cc12)CCCC3,"inconclusive: 89.1 µM [inhibitor, single point]",–
CCC(CC)C(=O)c1c[nH]c(C(=O)N2CCN(c3ccccc3F)CC2)c1,–,inactive: 11.1% [at 102 µM]
O=C(Cc1cccs1)NCc1cccc(Cl)c1,–,inactive: 26.3% [at 102 µM]
COc1ccc(C(=O)Nc2ccccc2)cc1NC(=O)c1ccc([N+](=O)[O-])cc1,"inconclusive: 100 µM [inhibitor, single point]",–
Cc1nnc(Nc2ccc(Cl)cc2)s1,"inconclusive: 79.4 µM [inhibitor, single point]",–
CCOc1ccc(C2C=C(c3ccc(F)cc3)Nc3ncnn32)cc1 (configuration not stated),–,inconclusive: -95% [inhibitor]
N#CC(C#N)=C1C=CC=CN1/C(=C\c1ccco1)C(=O)c1ccc(Cl)cc1,"inconclusive: 10 µM [inhibitor, partial curve, poor fit]",–
CC1CCC(=O)N(CCOc2ccccc2)CC1 (configuration not stated),–,inactive: -32% [at 102 µM]
COc1cc(Nc2cccc[n+]2C)cc(OC)c1OC,"inconclusive: 79.4 µM [inhibitor, single point]",–
COc1ccc(-c2cc(C(F)(F)F)nc(SCC(=O)NCc3ccco3)n2)cc1OC,"inconclusive: 35.5 µM [inhibitor, single point]",–
FC(F)(F)c1ccccc1NC(=S)Nn1cnnc1,active: 7.08 µM,–
CN(C)c1oc(-c2ccc(OCc3ccc(Cl)cc3)cc2)nc1C#N,"inconclusive: 3.16 µM [inhibitor, partial curve, poor fit]",–
Cc1ccc(S(=O)(=O)NCC(=O)NCC(=O)OCc2c(F)cccc2Cl)cc1,active: 8.91 µM,–
CCc1nc2c(sc3nc4c(cc32)COC(C)(C)C4)c(=O)n1Cc1ccccc1,"inconclusive: 39.8 µM [inhibitor, single point]",–
CCc1ccccc1NC(=O)c1nnn(CC(=O)Nc2c(C)cc(C)cc2C)c1N,–,inactive: -4.08%
CCn1c(=O)cc(OCC(=O)NCCCN2CCN(c3cccc(Cl)c3)CC2)c2ccccc21,"inconclusive: 79.4 µM [inhibitor, single point]",–
CC(C)C[C@@H](C=O)NC(=O)[C@H](CC(C)C)NC(=O)[C@H](CC(C)C)NC(=O)OCc1ccccc1 (Cbz-Leu-Leu-Leu-aldehyde),active: 8.91 µM,–
CN(C(=O)CSc1nc2ccc(NC(=O)c3ccco3)cc2s1)c1ccccc1,–,inactive: -7.34%
COCc1cc(C)nc(OCC(=O)N/N=C\c2cc(C)n(-c3cccc(C(F)(F)F)c3)c2C)c1C#N,"inconclusive: 89.1 µM [inhibitor, single point]",–
O=C(C[n+]1cccc(CNC(=O)c2ccc(OC(F)F)cc2)c1)c1ccccc1,"inconclusive: 89.1 µM [inhibitor, single point]",–
CN1CCN(CCCNC(=O)c2cc3c(-c4ccc(Cl)cc4)nn(C)c3s2)CC1,"inconclusive: 79.4 µM [inhibitor, single point]",–
CS(=O)(=O)N1CC2CCCN2c2cc(C(F)(F)F)ccc21 (configuration not stated),"inconclusive: 50.1 µM [inhibitor, partial curve]",–
CCOC(=O)CCSc1nc(C(C)(C)C)cc(C(F)(F)F)c1C#N,–,inactive: 51.8%

Structure (SMILES),Potency,"activity, negative = inhibition"
CCc1ccc[n+](-c2nc3ccccc3nc2C(=C=[N-])C#N)c1,"inconclusive: 89.1 µM [inhibitor, single point]",–
Cc1cc(NC(=O)Nc2ccc(C)c(C)c2)no1,"inconclusive: 22.4 µM [inhibitor, partial curve, poor fit]",–
COc1ccccc1N1CCN(Cc2ccco2)CC1,"inconclusive: 28.2 µM [inhibitor, single point]",–
COc1ccc(/C=C/C(=O)c2ccccn2)cc1,active: 39.8 µM,–
Nc1cc(C(F)(F)F)ccc1C(=O)O,"inconclusive: 39.8 µM [inhibitor, single point]",–
CC(=O)c1ccc(OCC(=O)NCc2ccc(F)cc2)cc1,–,inactive: 8.57% [at 102 µM]
Cc1cccc(CNCc2ccccc2)c1,"inconclusive: 1.41 µM [inhibitor, full curve]",–
Cc1cc2nc3c(=O)n(Cc4ccccc4)c(=O)[nH]c3nc2cc1N,"inconclusive: 50.1 µM [inhibitor, partial curve]",–
CN(CC(=O)N1CCCCC1)S(=O)(=O)c1cccc2cccnc12,"inconclusive: 50.1 µM [inhibitor, partial curve]",–
Cc1ccc(S(=O)(=O)NCCc2nnc(SCc3cccnc3)n2C)cc1,–,inactive: -0.236% [at 102 µM]
Cc1ccc(C(=O)C[n+]2cccc3cc(C)ccc32)cc1,"inconclusive: 79.4 µM [inhibitor, single point]",–
O=C(NCc1cccnc1)c1ccc2c(=O)n(CCCN3CCCC3=O)c(=S)[nH]c2c1,active: 39.8 µM,–
Cc1cc(C)c2nc(SCC(=O)NCCC3=CCCCC3)cc(C)c2c1,–,inactive: -1.01%
COc1ccc(N2C(=O)CC(c3ccc([N+](=O)[O-])cc3)C2=O)cc1 (configuration not stated),"inconclusive: 89.1 µM [inhibitor, single point]",–
CCCC1CC(C)(c2csc(Nc3ccc(OCC)cc3)n2)OC1=O (configuration not stated),"inconclusive: 39.8 µM [inhibitor, single point]",–
COc1ccc(N2CCN(C(=O)c3c(C)oc4ncn(CC(C)C)c(=O)c34)CC2)cc1,"inconclusive: 3.55 µM [inhibitor, partial curve, poor fit]",–
C/C=C/C=C/C(=O)N1CC2(CC(c3cccc(NC(=O)/C=C/C)c3)=NO2)C[C@@H]1C(N)=O (some centres not stated),"inconclusive: 3.55 µM [inhibitor, single point]",–
Cc1nc(-c2ccc(NS(=O)(=O)c3ccccc3)cc2)cs1,–,inactive: -30.6% [at 102 µM]
Cc1c(/C=N/NC(=O)c2ccc3c(c2)OCO3)cnn1C,"inconclusive: 79.4 µM [inhibitor, single point]",–
CCOC(=O)c1cc(S(=O)(=O)N2CCN(c3cccc(C)c3)C(C)C2)[nH]n1 (configuration not stated),active: 14.1 µM,–
Cc1ccc2cc(CN(Cc3ccco3)C(=O)c3ccco3)c3nnnn3c2c1,"inconclusive: 89.1 µM [inhibitor, single point]",–
COc1ccc(N2CCN(C(=S)Nc3ccc(S(N)(=O)=O)cc3)CC2)cc1,active: 8.91 µM,–
Cc1ccc(/C(N)=N/OC(=O)C(C)c2ccc([N+](=O)[O-])cc2)cc1 (configuration not stated),"inconclusive: 3.55 µM [inhibitor, partial curve, poor fit]",–
CC(C)c1ccc(CC(C)C2C3=C(CCCC3=O)OC3=C2C(=O)CCC3)cc1 (configuration not stated),"inconclusive: 89.1 µM [inhibitor, partial curve, poor fit]",–

Structure (SMILES),Potency,"activity, negative = inhibition"
COc1ccc(OC)c(NC(=O)C2CCN(c3nc(C)cc(C)n3)CC2)c1,"inconclusive: 0.891 µM [inhibitor, partial curve, poor fit]",–
COc1ccc2nc(NC3=NCN(CC4CCCO4)CN3)nc(C)c2c1 (configuration not stated),"inconclusive: 89.1 µM [inhibitor, single point]",–
N#Cc1c2ccc(O)cc2n2ccccc12,active: 3.98 µM,–
CN(c1ccc(OCC(=O)N2CCN(c3ccc(F)cc3)CC2)cc1)S(=O)(=O)c1cccs1,"inconclusive: 79.4 µM [inhibitor, single point]",–
COC(=O)c1ccc(CN(c2ccc(C)cc2)S(=O)(=O)c2ccc3c(c2)OCCO3)o1,–,inactive: 8.59%
CCN(CC)S(=O)(=O)c1ccc(NC(=O)c2cc(-c3cccs3)nc3ccccc23)cc1,–,inactive: -5.21% [at 102 µM]
CCOC(=O)c1csc(NC(=O)c2cccs2)n1,–,inactive: 17.6% [at 102 µM]
Cc1ccc(NC(=S)NC(=O)c2ccccc2)cc1NC(=S)NC(=O)c1ccccc1,"inconclusive: 50.1 µM [inhibitor, partial curve, poor fit]",–
CCCn1c(N2CCN(C(=O)Nc3ccccc3)CC2)nc2ccccc21,–,inactive: 10.1% [at 102 µM]
Cc1ccc(S(=O)(=O)/N=C2/NC(=O)/C(=C/c3ccncc3)S2)cc1,"inconclusive: 39.8 µM [inhibitor, partial curve, poor fit]",–
COCc1cc(=O)[nH]c(Nc2nc3ccccc3o2)n1,–,inactive: 68.3%
O=C(NCCCN1CCN(c2ccc(F)cc2)CC1)c1cccc(N2CCCC2=O)c1,–,inactive: -7.83%
CC(=O)CCc1ccc(OCC(O)CNC2CCCc3ccccc32)cc1 (configuration not stated),"inconclusive: 22.4 µM [inhibitor, single point]",–
Cc1ccc(/C=N/NC(=O)c2cc(-c3ccc(C)o3)[nH]n2)cc1,–,inactive: 17.4% [at 102 µM]
CCOc1ccc(C(=O)N/N=C/c2cc([N+](=O)[O-])cs2)cc1,"inconclusive: 70.8 µM [inhibitor, partial curve, poor fit]",–
Cc1cc(N2C(=O)C(=O)/C(=C(/O)c3ccc(Cl)cc3)C2c2cccc(Br)c2)no1 (configuration not stated),–,inactive: -2.11%
O=C1[C@@H]2C(c3cccnc3)=NO[C@@H]2C(=O)N1c1ccc(Br)cc1,active: 8.91 µM,–
CCc1ccc(CCC(=O)Nc2ccccc2C(=O)O)o1,"inconclusive: 79.4 µM [inhibitor, single point]",–
[O-]/C(=C(\C(=S)NCCN1CCOCC1)[n+]1ccccc1)c1ccc(Cl)s1,active: 25.1 µM,–
Cc1ccc(N2CC(=O)Nc3c(oc4nc(-c5ccccc5)cc(C)c34)C2=O)cc1,–,inactive: -3.5% [at 102 µM]
COc1ccc(OC)c(NS(=O)(=O)c2ccc(Cl)s2)c1,"inconclusive: 35.5 µM [inhibitor, single point]",–
CCCC(=N)C1=C(O)CC(CC(C)SCC)CC1=O (configuration not stated),–,inactive: -14.4% [at 102 µM]
CCc1ccc(CN(C)C(=O)c2cc(COc3ccc(-n4cncn4)cc3)on2)cc1,–,inactive: 26.3% [at 102 µM]
c1ccc(N=C(c2cccs2)N2CCOCC2)cc1,–,inactive: -11.6%
